# From PMC4336329 (PLoS ONE, 2015)
# Hit rate of the full screen: of about 310,000 compounds, about 14,000 (4.5%) showed an effect of 50% or more. The effect is printed as a negative number. This is one part of the list.
# Biological target: human ether-à-go-go-related gene (hERG) potassium channel (human, UniProt Q12809)
# Assay: primary screen, population patch clamp on CHO cells stably expressing hERG
# 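Note: peak tail current of the secondary pulse compared with the same well before compound.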
# Chain of human ether-à-go-go-related gene (hERG) potassium channel (Q12809 whole entry, looked up): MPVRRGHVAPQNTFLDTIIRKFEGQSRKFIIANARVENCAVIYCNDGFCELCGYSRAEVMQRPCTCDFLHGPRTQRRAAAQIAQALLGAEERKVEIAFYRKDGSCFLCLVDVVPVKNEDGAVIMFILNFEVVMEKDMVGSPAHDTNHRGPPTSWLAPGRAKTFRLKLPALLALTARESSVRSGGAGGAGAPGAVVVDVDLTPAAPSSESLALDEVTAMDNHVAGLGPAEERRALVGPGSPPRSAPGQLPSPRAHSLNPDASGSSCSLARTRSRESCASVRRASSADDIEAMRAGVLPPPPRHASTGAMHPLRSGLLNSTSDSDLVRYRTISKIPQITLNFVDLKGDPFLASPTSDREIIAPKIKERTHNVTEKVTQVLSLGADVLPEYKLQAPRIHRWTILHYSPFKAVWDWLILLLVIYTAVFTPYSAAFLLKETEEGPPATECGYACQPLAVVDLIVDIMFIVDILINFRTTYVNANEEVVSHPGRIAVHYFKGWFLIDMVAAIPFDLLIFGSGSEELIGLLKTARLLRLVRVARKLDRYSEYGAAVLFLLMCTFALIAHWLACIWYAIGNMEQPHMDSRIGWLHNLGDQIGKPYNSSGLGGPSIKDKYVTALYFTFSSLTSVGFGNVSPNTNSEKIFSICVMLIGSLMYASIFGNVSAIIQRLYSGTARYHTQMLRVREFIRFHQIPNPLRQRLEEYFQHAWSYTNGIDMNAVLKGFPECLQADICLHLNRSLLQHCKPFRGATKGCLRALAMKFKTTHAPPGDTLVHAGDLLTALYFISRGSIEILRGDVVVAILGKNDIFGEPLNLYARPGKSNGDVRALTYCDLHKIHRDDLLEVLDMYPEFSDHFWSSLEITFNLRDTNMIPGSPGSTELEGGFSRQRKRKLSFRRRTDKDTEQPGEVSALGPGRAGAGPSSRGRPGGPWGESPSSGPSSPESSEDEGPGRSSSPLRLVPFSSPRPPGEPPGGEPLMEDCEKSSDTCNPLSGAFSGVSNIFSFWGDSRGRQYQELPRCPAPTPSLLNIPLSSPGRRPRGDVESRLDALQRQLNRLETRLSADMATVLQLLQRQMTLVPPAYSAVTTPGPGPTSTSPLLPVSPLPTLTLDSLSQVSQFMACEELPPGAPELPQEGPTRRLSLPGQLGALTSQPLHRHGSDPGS
row,SMILES,"hERG current change (%, negative = inhibition) at 10uM"
1,Cc1ccc(-n2c(-c3ccc([N+](=O)[O-])cc3)nc3ccccc3c2=O)cc1,-25%
2,COc1ccc(NC(=O)c2sccc2-n2cccc2)cc1,3.64%
3,COc1cccc(N2CCN(S(=O)(=O)c3ccc(-c4cnc(C5CC5)o4)cc3)CC2)c1,13.8%
4,CC1C=CCC2C(=O)N(c3ccccc3OC(=O)c3ccco3)C(=O)C12 (centres unmarked),9.53%
5,COCCOc1cc(NC(=O)c2sccc2Oc2ccc([N+](=O)[O-])cc2F)c(Cl)cc1Cl,-0.0545%
6,CC(C)Cc1nnc(NC(=O)CSc2nc(-c3ccccc3)cc(=O)[nH]2)s1,3.94%
7,COc1cccc2c(=O)n(CC(=O)Nc3ccccc3)ccc12,0.612%
8,CCN1C(=O)C(NC(C)=O)c2cc(Br)ccc21 (centres unmarked),0.0677%
9,COc1ccc(NC(=O)NNC(=O)c2ccc3ccccc3c2)cc1OC,7.67%
10,CN1CCN(Cc2cc(Cl)c3cccnc3c2OC(=O)c2cccs2)CC1,-53.3%
11,COc1ccccc1C(=O)NCCC(=O)NC1=NCCS1,6.65%
12,CCc1ccc(-c2cc(C(F)(F)F)n3nc(C(=O)Nc4c(C)nn(Cc5ccc(F)cc5)c4C)cc3n2)s1,0.54%
13,CCN(CC)C(=O)CC(c1ccc(F)cc1)c1ccc(OC)cc1 (centres unmarked),-25.1%
14,O=C(Nc1ccc(Cl)cn1)c1ccccc1F,-1.25%
15,C=CCNC(=O)c1ccc(-c2nc(-c3ccccc3)cs2)cc1,1.85%
16,Cc1[nH]nc2c1C1(CCC(c3ccccc3)CC1)C(C#N)=C(N)O2 (centres unmarked),6.12%
17,Cc1cc(Cl)c(S(=O)(=O)NCC2CCCO2)cc1OCC(=O)NC1CCCCC1 (centres unmarked),-24.8%
18,COc1ccc(NC(=O)c2ccc(NCCCN3CCOCC3)c([N+](=O)[O-])c2)cc1,-3.71%
19,CCCc1[nH]nc2c1C(CCC)C(C#N)=C(N)O2 (centres unmarked),-11.6%
20,COC(=O)CN1C(=O)N/C(=C/c2cc(Cl)c(OC)c(OC)c2)C1=O,4.35%
21,CCCc1cc(C(=O)N2CCCC(N3CCN(c4ccccc4F)CC3)C2)n(C)n1 (centres unmarked),-20.9%
22,CC(=O)O[C@]1(c2ccccc2)CCN(C)[C@H]2CCCC[C@@H]21.Cl,12.4%

row,SMILES,"hERG current change (%, negative = inhibition) at 10uM"
1,CC(C)CCN(C(=O)COc1ccc(C#N)cc1)c1c(N)n(Cc2ccccc2)c(=O)[nH]c1=O,20.6%
2,CCOC(=O)C1(c2ccccc2)CCN(CCC(=O)Nc2ccc(C(=O)OC)cc2)CC1,-24.2%
3,Cc1ccc(S(=O)(=O)N(CC(=O)N/N=C/c2ccco2)Cc2ccccc2)cc1,-20.7%
4,COc1ccc(Oc2nnc(C)c3ccccc23)cc1,-3.54%
5,CCOC(=O)c1ccc(-n2c(CC)nc3ccccc3c2=O)cc1,15.1%
6,O=C(c1ccccc1)c1ccc2nc(-c3ccco3)c(-c3ccco3)nc2c1,5.9%
7,CCOc1cc(C(=S)N2CCCCC2)ccc1OCC(=O)NCc1ccccc1,-31.2%
8,O=c1c(Cc2ccc(F)cc2)c(O)ccn1Cc1ccc(Cl)cc1Cl,6.08%
9,Cl.O=C(c1ccco1)N(Cc1ccccc1)Cc1ccccn1,29.5%
10,CCCC12CN3CC(C)(CN(C1)C3c1ccc(OC(C)C)cc1)C2=O (centres unmarked),-16.9%
11,Cc1nn(-c2ccccc2)c(C)c1C(=O)OCC(=O)N(C)c1c(N)n(Cc2ccccc2)c(=O)[nH]c1=O,-3.66%
12,CN(C)C=O.O=C(O)c1cccc(-n2c(/C=C/c3cccc([N+](=O)[O-])c3)nc3ccccc3c2=O)c1,15.1%
13,O=C(CN1C(=O)c2ccccc2S1(=O)=O)NCCc1ccccc1,-5.1%
14,CC(Oc1ccc2c3c(c(=O)oc2c1)CCCC3)C(=O)NCc1cccnc1 (centres unmarked),10.4%
15,CCNC(=O)NC(=O)C(C)OC(=O)c1c(C)nn(Cc2ccccc2)c1Cl (centres unmarked),-0.451%
16,O=C(C1=C[C@H](c2ccc3c(c2)OCO3)C[C@H](OCc2ccc(CO)cc2)O1)N1CCOCC1,-6.6%
17,Cc1cccc(CN2CCC(CNC(=O)Cn3ncc4c([nH]c5ccccc54)c3=O)CC2)c1,-23.1%
18,COc1ccccc1CN1C(=S)SC(C)(C)C1NO (centres unmarked),-15.3%
19,Cc1cc(OCCCn2cnc3ccccc3c2=O)ccc1[N+](=O)[O-],-15.5%
20,CC1SCCN1S(=O)(=O)c1ccc2ccccc2c1 (centres unmarked),-5.42%
21,N/C(=N\OC(=O)c1cccs1)c1cccnc1,18.3%
22,O=C(COC(=O)/C=C/c1ccc(Cl)cc1)NC(=O)NCc1ccccc1,7.5%
